Test results from the RNAGym collection of RNA variant scans (doi:10.7554/elife.90254).
The source gives no read counts; variants with many changes may rest on few reads.

B1: LINE1-full (parent)
chain: UACGUAGGUGGUUUUCCCCUGAUAGUGCUAAGGGGGCCUGGAAGUUUGGACUGGGCAGAGCUCAACACAGCGUGGCAAAGUGGCUGUGGCUAGACUGCCUCUCUGGAUUCCUCGUCACUCAGCAGGGCAUCUCUGAGAGAAAUGCC

Variants of: B1
Experiment: self-cleavage, relative activity (ratio to wild type); higher = more cleavage; in vitro, sequencing; the parent is a self-cleaving ribozyme

Variant	self-cleavage
A50G U73C U87A U132C	0
A50G U73C U132C	2.3
A50G U81A A121G	1.23
A50G U81A A141G	1.1
A50G U81A U100A	0.78
A50G U85A U96C U115A	0.09
A50G U85A U104C	0
A50G U87C U108A A121U	0
A50G U91A A140G	0.52
A50G U96A U108C	0.05
A50G U102A G114A U130A A142G	1.18
A50G U104C A142G	0.8
A50G U104C G105U U134C	1.6
A50G U108C G144A	1.65
A50G U109C A124U	0.92
A50G U109C U112C A129G	0
A50G U112C A138G	1.67
A50G U115C U119A	1.25
A50U A57G A69G A138G	0.14
A50U A57G A121G	0.61
A50U A57G A142G	0.59
A50U A59G A77G	0.08
A50U A59G A79G A140U	0.04
A50U A59G U87A	0.02

Variant	self-cleavage
A50U A59G U96C	0.1
A50U A59U A64G	0.2
A50U A64G U73A U102C U134G	0.11
A50U A64U U132C	0.21
A50U A67C A140C	0.12
A50U A67G A140G	0.31
A50U A94G A129U	0.19
A50U A94G U112C	0
A50U A107G A136U C146A	0.79
A50U A117U A129G	1.19
A50U A121U U132A	1.01
A50U A129G A136G	1.91
A50U C56U U130A	0.09
A50U C63U U85C U96A U108C	0.12
A50U C71U A124U	0.36
A50U C90U A136U	0.05
A50U U52A G82A U96C	0.05
A50U U52A G126C	1.37
A50U U52C U132C	0
A50U U73C U132C	1.52
A50U U87C A94C A141G	0
A50U U87C A107U	0.34
A50U U96G C113U	0.06
A50U U102A U119A	1.53

Variant	self-cleavage
A50U U104A U119C U132C	0.4
A50U U112A U115C	1.45
A50U U112C A138G A141G U143A	1.17
A50U U115A C146U	0.6
A50U U132C A138C	1.31
C51A A65G U104C U115A G135U U143C	0.05
C51A U115A G125A	1.12
C51G A64U A92G A124U	0.3
C51U A67G U132A A136U G137A A138U	0.89
C51U A67U A78G U87C U100A U108C	0.26
C51U A67U G126U	0.09
C51U A77G U143A	2.66
C51U A78G A94G A138G	0.3
C51U A121G U132C	1.4
C51U G80U A117G	1.04
C51U U62A A67U A92U U108C A142G	0.02
C51U U73C U87C A138G	0.15
C51U U108C A136G	1.88
C51U U108C C123U	1.8
U52A A57G G125U	0.44
U52A A57G U134A	0.56
U52A A57U A67G U109A	0.03
U52A A57U U87A	0
U52A A59G A65G	0

Variant	self-cleavage
U52A A59G A140G	0.08
U52A A59U A77U	0.11
U52A A64G U108C C113U	0.61
U52A A64G U112A A136G U143C	0.28
U52A A65G A117G	0
U52A A65G G74A U102C	0.02
U52A A67G C84A U100C U143A	0
U52A A67U U102C U104A U112C U134C A136U	0.68
U52A A77G A94G A121U	0.49
U52A A77G U87C A92U U132C G135A	0.15
U52A A78G U115C	0.93
U52A A107U U108C	1.52
U52A A121G A124U A141G	2.32
U52A A136G A138G U143C	1.95
U52A C99G U119C A140U	1.33
U52A C113A U115C	1.09
U52A C116A A138G A141G	0.64
U52A G54A A64U A117G	0.23
U52A G58A A124C	0.02
U52A G80C U100A A107G	0
U52A G97U C145G	0.13
U52A U62C A65G	0
U52A U62C A67U	0.16
U52A U73A A138U	1.92

Variant	self-cleavage
U52A U73A U132C	2.1
U52A U73C C123U	2.16
U52A U81C C133U U143C C146U	0.63
U52A U81C U104A A107G	1.36
U52A U85C U112A	0.15
U52A U85G A121G	0.24
U52A U87A A124G	0.26
U52A U87A U102C	0.38
U52A U87A U143C	0.09
U52A U91A A124U	0.63
U52A U96A A136G	0.1
U52A U100A U108C A136G	1.89
U52A U104C U115C	2.9
U52A U108C A121U	1.93
U52A U108C A129U U130C G137U	0.61
U52A U112C U134C	0.79
U52A U115G A129G	2.01
U52A U119C A142G U143C	1.92
U52A U130C A140G	1.34
U52C A57G G58U	0.03
U52C A57G G70C	0.11
U52C A57G U119A	0.49
U52C A59G A136G	0.05
U52C A59G U132C	0.4

Variant	self-cleavage
U52C A59U C76U G82A U87C U143C	0.35
U52C A65G A121U A124G	0
U52C A65G A129G	0.21
U52C A65U A77G A138G	0
U52C A67G U73A G93U U108C A140U	0
U52C A67U U115A A121U C123U	0.04
U52C A78G G82A A124U	0.92
U52C A78G U81A G114A G135A	0.33
U52C A92C A138G	0
U52C A107G C113U A124G A142G	0.53
U52C C61U A77U	0
U52C C63A G72A	0.01
U52C C68U G127A A138G A142G	0.15
U52C G86A U112C	0.05
U52C U62C U109C G114U U143C	0.02
U52C U85C U100C	0
U52C U87A U91A A117G	0
U52C U91C U109A	0.66
U52C U96A U119A A138G	0
U52C U96C U143A	0.2
U52C U100C G125U	2.24
U52C U102C A107U	0.77
U52C U102C A141G	1.29
U52C U104A A121U	1.92

Variant	self-cleavage
U52C U104C U130C U143A	2.04
U52G A57U U119A	0.36
U52G A59G U112C	0.15
U52G A94U A117G	0
U52G G127A U143C	1.42
G53A A64G A69G U109A A142G	0.11
G53A A65G U85A A92G	0.03
G53A A67U A124G	0.01
G53A A69U U96C U112C	0.04
G53A A77G A121G U130C	2.55
G53A A77G G89A	0.07
G53A A92U A124G	0.28
G53A A124G G127U	1.21
G53A A124U A138G	1.52
G53A C84U U104C	0.1
G53A G55A A59G U81C	0.05
G53A G60U U62C U87G	0.01
G53A G72A G88A A94G G127C	0.04
G53A G105U A124G U132C	1.42
G53A U62C U108C	0.05
G53A U62C U112A	0.03
G53A U73A A124G	1.58
G53A U73A U81C U102C	1.39
